In patent publication US5994629A, “Positive selection” (priority 1991, dated 1999):

How the values were obtained:
Assay type in all cases: cell-based
[1] = system: wild type tobacco leaf discs co-cultivated with Agrobacterium; assay: Positive selection of transformed shoots using BA3GN sodium salt
tobacco leaf discs [2] = assay: Inhibition by SL of shoot formation induced by BA and BA3GN sodium salt; conditions: BA 0.5 mg/l, BA3GN sodium salt 15 mg/l
GUS- tobacco leaf discs [3] = assay: Effect of ammonium nitrate on shoot formation from BA3GN treated leaf discs, GUS-; conditions: pH 7
Source text: (§1) The methods used were the same as those described in Example 3, with the exception that Gamborg B5 substrate was used instead of MSO substrate.

GUS+ tobacco leaf discs [4] = assay: Effect of ammonium nitrate on shoot formation from BA3GN treated leaf discs, GUS+
Source text: as §1

[5] = system: tobacco leaf discs co-cultivated with Agrobacterium; assay: Positive selection combined with negative selection
Source text: In addition, the experiment included selection using BA3GN sodium salt together with saccharo 1,4-lactone (SL) (a strong specific inhibitor of the introduced β-glucuronidase).
The methods used were essentially as described below in Example 13, but Gamborg B5 substrate was used instead of MSO substrate.
The experiment with BA together with kanamycin, which is the traditional negative selection system, was repeated as two independent experiments with 54 leaf discs per experiment. A single GUS-positive shoot was detected among a total of 23 selected shoots. The results for BA3GN sodium salt were obtained using 324 leaf discs. The experiment with SL (saccharo 1,4-lactone) was performed once with a total of 162 leaf discs.

tobacco leaf discs [6] = assay: D-xylose and D-xylulose as carbohydrate sources, tobacco; conditions: xylose 0
Description: The standard leaf disc procedure for tobacco as described in Example 13 is performed, except that inoculation with Agrobacterium and the co-cultivation step are omitted. Benzyladenine (1 mg/l) is used as cytokinin and the carbohydrate content is as indicated below. The number of regenerated shoots from each leaf disc are registered after 21 days.

GUS+ tobacco leaf discs [7] = assay: Shoot regeneration with sitosteryl-β-D-glucuronide and tridemorph, GUS+; conditions: 121 mg/l, tridemorph 0.1 mM, 40 days
GUS- tobacco leaf discs [8] = assay: Shoot regeneration with sitosteryl-β-D-glucuronide and tridemorph, GUS-; conditions: 121 mg/l, tridemorph 0.1 mM, 40 days
[9] = 7.5 mg/l, BS10, B5 + ammon. + SL
[10] = 7.5 mg/l, Both strains, average
[11] = 7.5 mg/l, LDH1, B5 + ammon. + SL
[12] = 7.5 mg/l, strain BS10, co-cultivation substrate B5
[13] = 15 mg/l, BS10, B5 + ammon. + SL
[14] = 15 mg/l, LDH1, BS + ammon. + SL
[15] = 7.5 mg/l BA3GN, ammonium nitrate 25 mM, pH 7
[16] = 7.5 mg/l BA3GN, ammonium nitrate 35 mM, pH 7
[17] = 7.5 mg/l BA3GN, ammonium nitrate 55 mM, pH 7
[18] = 7.5 mg/l BA3GN, ammonium nitrate 65 mM, pH 7
[19] = 15 mg/l BA3GN, ammonium nitrate 25 mM, pH 7
[20] = 15 mg/l BA3GN, ammonium nitrate 35 mM, pH 7
[21] = 15 mg/l BA3GN, ammonium nitrate 45 mM, pH 7
[22] = 15 mg/l BA3GN, ammonium nitrate 55 mM, pH 7
[23] = 15 mg/l BA3GN, ammonium nitrate 65 mM, pH 7
[24] = 30 mg/l BA3GN, ammonium nitrate 25 mM, pH 7
[25] = 30 mg/l BA3GN, ammonium nitrate 35 mM, pH 7
[26] = 30 mg/l BA3GN, ammonium nitrate 45 mM, pH 7
[27] = 30 mg/l BA3GN, ammonium nitrate 55 mM, pH 7
[28] = 30 mg/l BA3GN, ammonium nitrate 65 mM, pH 7
[29] = kanamycin 0 mg/l, BA3GN sodium salt 15 mg/l
[30] = kanamycin 0 mg/l, BA3GN sodium salt 15 mg/l + SL (10 mM)
[31] = kanamycin 33 mg/l, BA3GN sodium salt 15 mg/l
[32] = kanamycin 100 mg/l, BA3GN sodium salt 15 mg/l
[33] = kanamycin 300 mg/l, BA 1 mg/l or BA3GN sodium salt 15 mg/l

O=C([O-])[C@H]1O[C@@H](n2cnc(NCc3ccccc3)c3ncnc2-3)[C@H](O)[C@@H](O)[C@@H]1O.[Na+]
% GUS+ shoots among total shoots ([1]; 7.5 mg/l, BS10, B5 + ammon.): 0.7%
% GUS+ shoots among total shoots [1, 9]: 6.l
GUS+ shoots per leaf disc [1, 9]: 0.3
% GUS+ shoots among total shoots ([1]; 7.5 mg/l, BS10, average): 4.4%
GUS+ shoots per leaf disc ([1]; 7.5 mg/l, BS10, average): 0.1
% GUS+ shoots among total shoots [1, 10]: 5.1%
GUS+ shoots per leaf disc [1, 10]: 0.2
% GUS+ shoots among total shoots ([1]; 7.5 mg/l, LDH1, B5): 7.8%
GUS+ shoots per leaf disc ([1]; 7.5 mg/l, LDH1, B5): 0.2
% GUS+ shoots among total shoots ([1]; 7.5 mg/l, LDH1, B5 + ammon.): 5.3%
GUS+ shoots per leaf disc ([1]; 7.5 mg/l, LDH1, B5 + ammon.): 0.2
% GUS+ shoots among total shoots [1, 11]: 4.7%
GUS+ shoots per leaf disc [1, 11]: 0.2
% GUS+ shoots among total shoots ([1]; 7.5 mg/l, LDH1, average): 5.9%
GUS+ shoots per leaf disc ([1]; 7.5 mg/l, LDH1, average): 0.2
% GUS+ shoots among total shoots [1, 12]: 6.6%
GUS+ shoots per leaf disc [1, 12]: 0.1
% GUS+ shoots among total shoots ([1]; 15 mg/l, BS10, B5): 6.0%
GUS+ shoots per leaf disc ([1]; 15 mg/l, BS10, B5): 0.3
% GUS+ shoots among total shoots ([1]; 15 mg/l, BS10, B5 + ammon.): 8.7%
GUS+ shoots per leaf disc ([1]; 15 mg/l, BS10, B5 + ammon.): 0.4
% GUS+ shoots among total shoots [1, 13]: 5.5%
GUS+ shoots per leaf disc [1, 13]: 0.3
% GUS+ shoots among total shoots ([1]; 15 mg/l, BS10, average): 6.7%
GUS+ shoots per leaf disc ([1]; 15 mg/l, BS10, average): 0.3
% GUS+ shoots among total shoots ([1]; 15 mg/l, Both strains, average): 7.4%
GUS+ shoots per leaf disc ([1]; 15 mg/l, Both strains, average): 0.3
% GUS+ shoots among total shoots ([1]; 15 mg/l, LDH1, B5): 9.0%
GUS+ shoots per leaf disc ([1]; 15 mg/l, LDH1, B5): 0.4
% GUS+ shoots among total shoots ([1]; 15 mg/l, LDH1, B5 + ammon.): 7.6%
GUS+ shoots per leaf disc ([1]; 15 mg/l, LDH1, B5 + ammon.): 0.3
% GUS+ shoots among total shoots [1, 14]: 7.7%
GUS+ shoots per leaf disc [1, 14]: 0.3
% GUS+ shoots among total shoots ([1]; 15 mg/l, LDH1, average): 8.1%
GUS+ shoots per leaf disc ([1]; 15 mg/l, LDH1, average): 0.3
Number of regenerated shoots per leaf disc (tobacco leaf discs [2]; SL 0 mM): 5.6
relative number of regenerated shoots per leaf disc (tobacco leaf discs [2]; SL 0 mM): 100%
Number of regenerated shoots per leaf disc (tobacco leaf discs [2]; SL 16 mM): 1.4
relative number of regenerated shoots per leaf disc (tobacco leaf discs [2]; SL 16 mM): 25%
number of shoots, GUS- (GUS- tobacco leaf discs [3]; 7.5 mg/l BA3GN, ammonium nitrate 25 mM): 0
number of shoots, GUS- (GUS- tobacco leaf discs [3]; 7.5 mg/l BA3GN, ammonium nitrate 35 mM): 1
number of shoots, GUS- (GUS- tobacco leaf discs [3]; 7.5 mg/l BA3GN, ammonium nitrate 45 mM): 0
number of shoots, GUS- (GUS- tobacco leaf discs [3]; 7.5 mg/l BA3GN, ammonium nitrate 55 mM): 0
number of shoots, GUS- (GUS- tobacco leaf discs [3]; 7.5 mg/l BA3GN, ammonium nitrate 65 mM): 0
number of shoots, GUS- (GUS- tobacco leaf discs [3]; 15 mg/l BA3GN, ammonium nitrate 25 mM): 2
number of shoots, GUS- (GUS- tobacco leaf discs [3]; 15 mg/l BA3GN, ammonium nitrate 35 mM): 7
number of shoots, GUS- (GUS- tobacco leaf discs [3]; 15 mg/l BA3GN, ammonium nitrate 45 mM): 6
number of shoots, GUS- (GUS- tobacco leaf discs [3]; 15 mg/l BA3GN, ammonium nitrate 65 mM): 2
Sel. factor (GUS+/GUS- shoots) (GUS+ tobacco leaf discs [4]; [15]): > 4 x
number of shoots, GUS+ (GUS+ tobacco leaf discs [4]; [15]): 4
Sel. factor (GUS+/GUS- shoots) (GUS+ tobacco leaf discs [4]; [16]): 6 x
number of shoots, GUS+ (GUS+ tobacco leaf discs [4]; [16]): 6
number of shoots, GUS+ (GUS+ tobacco leaf discs [4]; 7.5 mg/l BA3GN, ammonium nitrate 45 mM, pH 7): 0
Sel. factor (GUS+/GUS- shoots) (GUS+ tobacco leaf discs [4]; [17]): > 14 x
number of shoots, GUS+ (GUS+ tobacco leaf discs [4]; [17]): 14
Sel. factor (GUS+/GUS- shoots) (GUS+ tobacco leaf discs [4]; [18]): > 2 x
number of shoots, GUS+ (GUS+ tobacco leaf discs [4]; [18]): 2
Sel. factor (GUS+/GUS- shoots) (GUS+ tobacco leaf discs [4]; 7.5 mg/l BA3GN, line 'Average'): 26 x
number of shoots, GUS+ (GUS+ tobacco leaf discs [4]; 7.5 mg/l BA3GN, line 'Average' over ammonium nitrate 25-65 mM): 26
Sel. factor (GUS+/GUS- shoots) (GUS+ tobacco leaf discs [4]; [19]): 17 x
number of shoots, GUS+ (GUS+ tobacco leaf discs [4]; [19]): 33
Sel. factor (GUS+/GUS- shoots) (GUS+ tobacco leaf discs [4]; [20]): 7 x
number of shoots, GUS+ (GUS+ tobacco leaf discs [4]; [20]): 50
Sel. factor (GUS+/GUS- shoots) (GUS+ tobacco leaf discs [4]; [21]): 3 x
number of shoots, GUS+ (GUS+ tobacco leaf discs [4]; [21]): 20
Sel. factor (GUS+/GUS- shoots) (GUS+ tobacco leaf discs [4]; [22]): > 34 x
number of shoots, GUS+ (GUS+ tobacco leaf discs [4]; [22]): 34
Sel. factor (GUS+/GUS- shoots) (GUS+ tobacco leaf discs [4]; [23]): 4 x
number of shoots, GUS+ (GUS+ tobacco leaf discs [4]; [23]): 8
Sel. factor (GUS+/GUS- shoots) (GUS+ tobacco leaf discs [4]; 15 mg/l BA3GN, line 'Average'): 9 x
number of shoots, GUS+ (GUS+ tobacco leaf discs [4]; 15 mg/l BA3GN, line 'Average' over ammonium nitrate 25-65 mM): 145
Sel. factor (GUS+/GUS- shoots) (GUS+ tobacco leaf discs [4]; [24]): 2 x
number of shoots, GUS+ (GUS+ tobacco leaf discs [4]; [24]): 73
Sel. factor (GUS+/GUS- shoots) (GUS+ tobacco leaf discs [4]; [25]): 2 x
number of shoots, GUS+ (GUS+ tobacco leaf discs [4]; [25]): 73
Sel. factor (GUS+/GUS- shoots) (GUS+ tobacco leaf discs [4]; [26]): 2 x
number of shoots, GUS+ (GUS+ tobacco leaf discs [4]; [26]): 57
Sel. factor (GUS+/GUS- shoots) (GUS+ tobacco leaf discs [4]; [27]): 3 x
number of shoots, GUS+ (GUS+ tobacco leaf discs [4]; [27]): 37
Sel. factor (GUS+/GUS- shoots) (GUS+ tobacco leaf discs [4]; [28]): 1 x
number of shoots, GUS+ (GUS+ tobacco leaf discs [4]; [28]): 25
Sel. factor (GUS+/GUS- shoots) (GUS+ tobacco leaf discs [4]; 30 mg/l BA3GN, line 'Average'): 2 x
number of shoots, GUS+ (GUS+ tobacco leaf discs [4]; 30 mg/l BA3GN, line 'Average' over ammonium nitrate 25-65 mM): 265
GUS+ shoots among total shoots, % [5, 29]: 7.4%
GUS+ shoots among total shoots, compared to BA + Kanamycin [5, 29]: 1.7 x
GUS+ shoots per leaf disc, No. [5, 29]: 0.3
GUS+ shoots per leaf disc, compared to BA + Kanamycin [5, 29]: 30 x
GUS+ shoots among total shoots, % [5, 30]: 0.9%
GUS+ shoots among total shoots, compared to BA + Kanamycin [5, 30]: 0.2 x
GUS+ shoots among total shoots, % [5, 31]: 4.7%
GUS+ shoots among total shoots, compared to BA + Kanamycin [5, 31]: 1.1 x
GUS+ shoots per leaf disc, No. [5, 31]: 0.4
GUS+ shoots per leaf disc, compared to BA + Kanamycin [5, 31]: 40 x
GUS+ shoots among total shoots, % [5, 32]: 3.2%
GUS+ shoots among total shoots, compared to BA + Kanamycin [5, 32]: 0.7 x
GUS+ shoots per leaf disc, No. [5, 32]: 0.2
GUS+ shoots per leaf disc, compared to BA + Kanamycin [5, 32]: 20 x
GUS+ shoots among total shoots, % [5, 33]: 47.1%
GUS+ shoots among total shoots, compared to BA + Kanamycin [5, 33]: 11 x
GUS+ shoots per leaf disc, No. [5, 33]: 0.1
GUS+ shoots per leaf disc, compared to BA + Kanamycin [5, 33]: 10 x

O=C(CO)[C@@H](O)[C@H](O)CO [D-xylulose]
Number of regenerated shoots each leaf disc (tobacco leaf discs [6]; sucrose 0, xylulose 10 g/l): 4.1
Number of regenerated shoots each leaf disc (tobacco leaf discs [6]; sucrose 10 g/l, xylulose 10 g/l): 11.7

CC[C@H](CC[C@@H](C)[C@H]1CC[C@H]2[C@@H]3CC=C4C[C@@H](O[C@@H]5O[C@H](C(=O)O)[C@@H](O)[C@H](O)[C@H]5O)CC[C@]4(C)[C@H]3CC[C@]12C)C(C)C [Sitosteryl-β-D-glucuronide, β-sitosteryl-β-D-glucuronidide]
Regenerated shoots per leaf disc (GUS+ tobacco leaf discs [7]; BA 0.1 mg/l): 2.4
Regenerated shoots per leaf disc (GUS+ tobacco leaf discs [7]; BA3GN sodium salt 1.88 mg/l): 2.4
Regenerated shoots per leaf disc (GUS- tobacco leaf discs [8]; BA 0.1 mg/l): 1.9
Regenerated shoots per leaf disc (GUS- tobacco leaf discs [8]; BA3GN sodium salt 1.88 mg/l): 0.1

OC[C@H]1O[C@@](CO)(O[C@H]2O[C@H](CO)[C@@H](O)[C@H](O)[C@H]2O)[C@@H](O)[C@@H]1O [sucrose]
Number of regenerated shoots each leaf disc (tobacco leaf discs [6]; sucrose 10 g/l, xylulose 0): 2.3
